Assay results published in the supplement of paper PMC10126150.
Sequences with one replicate were seen in a single cluster, so their values are uncertain.

Test system: ATP
Assay: switch fluorescence ratio, 500 uM ATP over buffer (Cy3 cluster intensity, sum of 5 cycles each) (fold (ratio)); higher = stronger signal-on switching upon ATP binding; sequences stand for … in TCGTCGGCAGCGTCAGATGTGTATAAGAGACAGTTTTTTTTTTTTTTTTTTTTTTTTT…TC
Conditions: aptamer strand: ATP DNA aptamer (quencher-CACCTGGGGGAGTATTGCGGAGGAAGG + anchor), 100 nM annealed; ATP concentration: 500 uM; one replicate
How it was run: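 Between each of five buffer/ATP cycles, the flow-cell was stripped with NaOH and re-annealed. Each cycle imaged Cy3-labelled switching-strand clusters, annealed to 100 nM quencher-labelled ATP aptamer on a modified Illumina MiSeq flow-cell, first in selection buffer and then after 15 min with 500 uM ATP at 22 °C. The fluorescence ratio is summed target-cycle over summed buffer-cycle Cy3 intensity per cluster, averaged per switch-domain sequence, with clusters outside 100-1000 RFU excluded.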
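Also: ATP exposure 15 min at 22 °C before imaging.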

Row | Sequence | switch fluorescence ratio
1 | GGATTGTTAA | 0.99
2 | CAAGAATCCC | 1.11
3 | AACTTCAGCC | 1.69
4 | CAATTCGTGT | 1
5 | AACAACGTAG | 0.986
6 | GTCTACTTCG | 1.03
7 | GGGCAAAAGG | 0.982
8 | TATGAGAGTA | 0.981
9 | TAGTTTGTTG | 0.978
10 | ATGGACTACG | 1
11 | TTTGGGGATA | 1.03
12 | CTGTGTAGT | 1.16
13 | GGACTAAATT | 1.48
14 | ATGAACCCGC | 1.01
15 | TTCCGTCGCG | 1.37
16 | TAGTTTCATA | 1
17 | TTCTGACGTC | 1.02
18 | GTAATTGCGA | 1.02
19 | ACCTGGGCCG | 1.08
20 | TTGACACCTT | 1.2
21 | TTTGGCCACT | 1.04
22 | GGAGTACGTC | 1.02
23 | ACGTGCAACA | 0.989

Row | Sequence | switch fluorescence ratio
24 | CCACATGCGG | 0.99
25 | AGATACTATT | 1.03
26 | GACTATATT | 0.989
27 | CTTCACTGA | 1.01
28 | TTCCGGTAAA | 1.01
29 | ATGGTCTTCA | 0.988
30 | GGGAGTATTC | 0.983
31 | TTTGGCCCAC | 1.01
32 | GCCGCCGAAC | 1.15
33 | CGGAGGCTCG | 0.984
34 | ATTTTTTGT | 0.972
35 | GCACGAGGGT | 0.972
36 | GCGTTACTAG | 1.04
37 | CTACGGTAAT | 1.61
38 | TAGAGGGGTA | 1.02
39 | GGTGCGAAAA | 0.999
40 | CTGTTCCTGG | 0.996
41 | AAATTCGCA | 1.02
42 | TGCAGCTACG | 0.963
43 | TGCATTGGCT | 1
44 | CGCTACTCTT | 3.08
45 | AATAAGAGCC | 1.02
46 | GTAATTAGGC | 1.03

Row | Sequence | switch fluorescence ratio
47 | GCGATATTAT | 0.999
48 | GGGGGAATCG | 1.04
49 | TTACGGCTGG | 1.02
50 | GAGGGGATCT | 0.962
51 | AGGAAAAACG | 1.05
52 | AGTTGGTC | 0.996
53 | GGATTCATGT | 1.02
54 | CCAGTAGGTG | 1.67
55 | ATAATTGGAG | 0.992
56 | ATCGGTCGGA | 0.968
57 | CACAAGGGCT | 0.954
58 | TTCCCCGTTA | 1.03
59 | TTAATCATTT | 1.02
60 | TGTTACTGTA | 1.22
61 | GCATTAGATA | 1.03
62 | CAAATTTAGG | 0.996
63 | GTTGATAATA | 1
64 | GCATCACTAT | 1.04
65 | GTATATTGGA | 1.01
66 | CAATTAGCG | 1
67 | ATCTAAAAAT | 0.985
68 | ACGGTAGGCT | 1.03
69 | CGAAGAGCCG | 1.03

Row | Sequence | switch fluorescence ratio
70 | GGTGATTTTG | 0.977
71 | CAACGCTAAA | 1.58
72 | GAGGGAGT | 1.04
73 | GCGACAATTA | 1.13
74 | GCGCACGAGC | 1.04
75 | CATGTCCACG | 1.01
76 | GAGGGAGACT | 0.996
77 | TGCATTGAGG | 1.02
78 | AGTGTAATTG | 1.02
79 | AGGATGTAT | 0.99
80 | CCAGCGGGGG | 0.989
81 | GCACTACTGG | 1.08
82 | GGAATTATAG | 1.02
83 | ATTATGATCT | 0.985
84 | CTGGCTTTTC | 1
85 | GTAAGTAGAA | 1
86 | TGGATAGCG | 1.04
87 | AAACTGTCTT | 0.929
88 | TCTCCATCTA | 1.03
89 | AACGGTACAT | 1.37
90 | GAACTGATT | 0.988
91 | TGCTTGTAGC | 1.05
92 | ATGGGGTCAC | 0.99

Row | Sequence | switch fluorescence ratio
93 | GAGTGACTGG | 0.989
94 | CGACTTAATA | 1.26
95 | GTCTATAGAA | 1
96 | AATGGCACGC | 1.09
97 | AACTGATAAT | 1.02
98 | AGGAGCGTCT | 1.09
99 | AGGTTGGAAT | 1.01
100 | GGGGCCCTTC | 0.992
101 | TTCTTTGGCG | 0.979
102 | ATTCCCACCA | 1
103 | ATCGTATGAC | 1.11
104 | TTACTTGCAG | 0.984
105 | CGATCGGGA | 0.992
106 | TGAAGACATC | 1.02
107 | GAGAATAACT | 1.03
108 | TACAGGCCGG | 1.02
109 | TAACATAGAG | 1.01
110 | CTCCGTGAGC | 2.86
111 | GTTCAGAAGG | 1.02
112 | GCTGGATAGA | 1.04
113 | AGATGCGTGT | 0.999
114 | CGCAAGTCAT | 1.04
115 | GCGGTAACTA | 1.01

Row | Sequence | switch fluorescence ratio
116 | CAAACGAATT | 0.987
117 | CAAGTTCCGC | 1.12
118 | AGTGATTAGG | 0.931
119 | CGCACAGTG | 1.32
120 | CTATAAAACA | 1.05
121 | ACTCACAGCT | 1.42
122 | TGAGTGCGCG | 1.02
123 | GTCGCTCAAG | 1
124 | GCAATTGAA | 1.02
125 | GGGACCTCCT | 1.01
126 | CAGTTGGTCT | 1.02
127 | ATTCGAAGAA | 0.974
128 | CGGAAGTAGG | 0.951
129 | TTCATAGGGT | 0.949
130 | ACTCTACACG | 1.34
131 | CCCCCAAGAA | 2.24
132 | CGAGCCCCGT | 1.02
133 | AGTTGTTCTT | 0.959
134 | GTGGGCATAT | 1.02
135 | CATCCACGCA | 1.89
136 | AGTTATTGGT | 0.991
137 | TCGTCCGGG | 1.13
138 | TGCTTAATAT | 0.989

Row | Sequence | switch fluorescence ratio
139 | AAGCATACAT | 1.03
140 | TTACCGACTT | 1.1
141 | ATATACACCA | 1.18
142 | GTTACACGCC | 1.07
143 | TTTGTCTAAG | 1.01
144 | TAGCCAGTTG | 1.02
145 | TAAGGAGGCG | 0.989
146 | GCGGGATGTA | 0.937
147 | GGACCATGCG | 1.26
148 | TACTTTTTC | 0.968
149 | GAATGCGTTT | 1.01
150 | GCCGCGCGCA | 1.01
151 | CATATAGACA | 1.04
152 | AGTCGAAGCC | 1.03
153 | TAGTGGCTAT | 0.989
154 | GCCAGGGCCT | 1.01
155 | TAAGAGCCGA | 0.987
156 | GGCTAAAGA | 0.991
157 | AATGCGTAAA | 0.97
